According to the BET-seq Pho4 binding data (Le et al. 2018):
This is one part of the list. The energies were worked out here from pooled read counts, against the library average; single values are noisy.

The sequences below were run against T1, Pho4 (S. cerevisiae) (UniProt P07270) (assay: relative binding free energy (BET-seq); higher = weaker binding). Settings: reference: library average.
T1 sequence: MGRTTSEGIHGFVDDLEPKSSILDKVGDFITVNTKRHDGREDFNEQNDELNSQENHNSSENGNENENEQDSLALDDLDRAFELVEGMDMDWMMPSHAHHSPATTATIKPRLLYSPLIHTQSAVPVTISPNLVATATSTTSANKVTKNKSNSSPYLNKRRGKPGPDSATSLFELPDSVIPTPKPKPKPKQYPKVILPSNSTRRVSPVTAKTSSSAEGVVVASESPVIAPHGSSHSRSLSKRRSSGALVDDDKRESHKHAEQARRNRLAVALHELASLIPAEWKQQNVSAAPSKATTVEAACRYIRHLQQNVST
With GACGGCACGTGGACGT the “relative binding free energy” value was 0.17 kcal/mol.
In the case of ATGGGCACGTGGTGCG, the “relative binding free energy” value is reported as -0.2 kcal/mol.
In the case of GAGGTCACGTGGATAG, the “relative binding free energy” value is reported as 0.1 kcal/mol.
For TCGGGCACGTGTATGT, the “relative binding free energy” value was 0.02 kcal/mol.
For TAAGACACGTGTGGAG, the “relative binding free energy” value was 0.02 kcal/mol.
In the case of CTTTTCACGTGACGGG, the “relative binding free energy” value is reported as 0.22 kcal/mol.
In the case of TGGCTCACGTGTAGGG, the “relative binding free energy” value is reported as 0.13 kcal/mol.
In the case of AATGGCACGTGCACGT, the “relative binding free energy” value is reported as -0.03 kcal/mol.
In the case of TTAATCACGTGTCGGG, the “relative binding free energy” value is reported as 0.26 kcal/mol.
GGGTTCACGTGCGTCT was tested, and the “relative binding free energy” value was 0.19 kcal/mol.
TAAGTCACGTGAAGTA was tested, and the “relative binding free energy” value was 0.31 kcal/mol.
With TAGCGCACGTGGTGGC the “relative binding free energy” value was -0.27 kcal/mol.
In the case of AGAATCACGTGGATTG, the “relative binding free energy” value is reported as 0.11 kcal/mol.
TTATACACGTGTCTAT was tested, and the “relative binding free energy” value was -0.1 kcal/mol.
For GTAGACACGTGATGTG, the “relative binding free energy” value was 0.06 kcal/mol.
With ATTGCCACGTGTCGTG the “relative binding free energy” value was -0.09 kcal/mol.
GAGTGCACGTGTATAT was tested, and the “relative binding free energy” value was 0.05 kcal/mol.
GTAGTCACGTGAAGTG was tested, and the “relative binding free energy” value was 0.28 kcal/mol.
For ACAGGCACGTGTTGGC, the “relative binding free energy” value was 0.05 kcal/mol.
For CTGTTCACGTGATATG, the “relative binding free energy” value was 0.27 kcal/mol.
With TTCATCACGTGAAGGG the “relative binding free energy” value was 0.17 kcal/mol.
With GATATCACGTGTTGTG the “relative binding free energy” value was 0.21 kcal/mol.
In the case of GGATTCACGTGAGCGG, the “relative binding free energy” value is reported as 0.4 kcal/mol.
In the case of TAGCGCACGTGTGAGG, the “relative binding free energy” value is reported as 0.04 kcal/mol.
For TGAAGCACGTGGGTTT, the “relative binding free energy” value was -0.1 kcal/mol.
With TAATACACGTGTTGAA the “relative binding free energy” value was 0.1 kcal/mol.
With AGTTGCACGTGCATGG the “relative binding free energy” value was -0.06 kcal/mol.
For TAGTTCACGTGGGAAC, the “relative binding free energy” value was 0.26 kcal/mol.
For CGGGGCACGTGGGTGC, the “relative binding free energy” value was -0.29 kcal/mol.
For GGTCTCACGTGGTTCG, the “relative binding free energy” value was 0.28 kcal/mol.
In the case of TTTATCACGTGAATGA, the “relative binding free energy” value is reported as 0.3 kcal/mol.
In the case of GTAGCCACGTGAGGGG, the “relative binding free energy” value is reported as 0.15 kcal/mol.
With AGGAGCACGTGGGTGA the “relative binding free energy” value was -0.34 kcal/mol.
TATCTCACGTGGGTTG was tested, and the “relative binding free energy” value was 0.23 kcal/mol.
For ATCGACACGTGTTGTT, the “relative binding free energy” value was 0.04 kcal/mol.
For AATATCACGTGGTTTG, the “relative binding free energy” value was 0.11 kcal/mol.
In the case of AGAGTCACGTGAGGGG, the “relative binding free energy” value is reported as 0.3 kcal/mol.
With ATATTCACGTGAATTG the “relative binding free energy” value was 0.24 kcal/mol.
GGATACACGTGGGCGT was tested, and the “relative binding free energy” value was -0.2 kcal/mol.
With CTGTGCACGTGAGTCG the “relative binding free energy” value was 0.26 kcal/mol.
For TGGGTCACGTGGCGAT, the “relative binding free energy” value was 0.03 kcal/mol.
For AAGTGCACGTGTATGT, the “relative binding free energy” value was 0.05 kcal/mol.
GTATGCACGTGGGTTG was tested, and the “relative binding free energy” value was -0.13 kcal/mol.
CGCGACACGTGTGTGT was tested, and the “relative binding free energy” value was -0.04 kcal/mol.
TTATTCACGTGATAGT was tested, and the “relative binding free energy” value was 0.22 kcal/mol.
With TTCTCCACGTGTAGGT the “relative binding free energy” value was 0.05 kcal/mol.
With ATGCTCACGTGAATGG the “relative binding free energy” value was 0.35 kcal/mol.
GGGTACACGTGCTAAG was tested, and the “relative binding free energy” value was 0.12 kcal/mol.
With AGATGCACGTGTCGTG the “relative binding free energy” value was -0.01 kcal/mol.
In the case of TATAACACGTGGGCGA, the “relative binding free energy” value is reported as -0.05 kcal/mol.
With GTCATCACGTGAGTTG the “relative binding free energy” value was 0.33 kcal/mol.
In the case of GGCATCACGTGTTAGT, the “relative binding free energy” value is reported as 0.23 kcal/mol.
In the case of GTTAGCACGTGCGGAT, the “relative binding free energy” value is reported as -0.07 kcal/mol.
GACTGCACGTGAGGGA was tested, and the “relative binding free energy” value was 0.41 kcal/mol.
GGTAGCACGTGGTGCA was tested, and the “relative binding free energy” value was -0.12 kcal/mol.
For TGTATCACGTGCTGGC, the “relative binding free energy” value was 0.16 kcal/mol.
TCTACCACGTGGTGTG was tested, and the “relative binding free energy” value was -0.01 kcal/mol.
In the case of TCATGCACGTGTTTTT, the “relative binding free energy” value is reported as 0.03 kcal/mol.
In the case of GTGCGCACGTGGGCGT, the “relative binding free energy” value is reported as -0.17 kcal/mol.
TTTATCACGTGCAAGG was tested, and the “relative binding free energy” value was 0.1 kcal/mol.
In the case of CATGGCACGTGTATGT, the “relative binding free energy” value is reported as -0.01 kcal/mol.
With TTGGTCACGTGGTATT the “relative binding free energy” value was 0.03 kcal/mol.
TTTACCACGTGGGGGG was tested, and the “relative binding free energy” value was -0.03 kcal/mol.
GTGGTCACGTGAAAAT was tested, and the “relative binding free energy” value was 0.41 kcal/mol.
For TGTTCCACGTGTGGAC, the “relative binding free energy” value was 0.19 kcal/mol.
GTGCACACGTGTTTTG was tested, and the “relative binding free energy” value was 0.07 kcal/mol.
ATTATCACGTGCTTAT was tested, and the “relative binding free energy” value was 0 kcal/mol.
In the case of GTTCACACGTGGGCTG, the “relative binding free energy” value is reported as 0.05 kcal/mol.
GGCCTCACGTGTGGGG was tested, and the “relative binding free energy” value was 0.13 kcal/mol.
GGTGACACGTGCGGTA was tested, and the “relative binding free energy” value was -0.1 kcal/mol.
In the case of CCGGGCACGTGTGAGG, the “relative binding free energy” value is reported as 0 kcal/mol.
For GAGTACACGTGGAAGT, the “relative binding free energy” value was 0.2 kcal/mol.
GATATCACGTGTTTTT was tested, and the “relative binding free energy” value was 0.15 kcal/mol.
GGTCGCACGTGTTGGC was tested, and the “relative binding free energy” value was 0.02 kcal/mol.
For AGGTACACGTGTCTGG, the “relative binding free energy” value was 0.03 kcal/mol.
For TGGCTCACGTGGATAA, the “relative binding free energy” value was 0.34 kcal/mol.
For CTTATCACGTGGACTG, the “relative binding free energy” value was 0.36 kcal/mol.
With AGCTTCACGTGGTGTG the “relative binding free energy” value was 0.2 kcal/mol.
TTGATCACGTGACGTG was tested, and the “relative binding free energy” value was 0.14 kcal/mol.
In the case of GATGACACGTGAGGTG, the “relative binding free energy” value is reported as 0.34 kcal/mol.
With CCGGGCACGTGAGGGG the “relative binding free energy” value was 0.07 kcal/mol.
In the case of AGGAGCACGTGCGTTA, the “relative binding free energy” value is reported as -0.08 kcal/mol.
For GGTGGCACGTGGGCTC, the “relative binding free energy” value was -0.24 kcal/mol.
CGAGTCACGTGAAGGT was tested, and the “relative binding free energy” value was 0.35 kcal/mol.
With ATGTACACGTGACTTT the “relative binding free energy” value was 0.24 kcal/mol.
With GAGGACACGTGAGGGA the “relative binding free energy” value was 0.23 kcal/mol.
With GGTGGCACGTGCGTCT the “relative binding free energy” value was -0.09 kcal/mol.
TAGTGCACGTGACGCG was tested, and the “relative binding free energy” value was 0.09 kcal/mol.
TACTGCACGTGTTGGA was tested, and the “relative binding free energy” value was -0.01 kcal/mol.
With TCGTTCACGTGGTCGT the “relative binding free energy” value was 0.17 kcal/mol.
In the case of TTCAACACGTGTTATT, the “relative binding free energy” value is reported as 0.11 kcal/mol.
In the case of TGTGACACGTGTAGAT, the “relative binding free energy” value is reported as 0.3 kcal/mol.
GAGAACACGTGTGTTA was tested, and the “relative binding free energy” value was 0.14 kcal/mol.
With TGTATCACGTGCGTTG the “relative binding free energy” value was 0.04 kcal/mol.
TCTATCACGTGGATTG was tested, and the “relative binding free energy” value was 0.11 kcal/mol.
In the case of GGCTGCACGTGTTTTA, the “relative binding free energy” value is reported as 0.2 kcal/mol.
AGACGCACGTGGGTGG was tested, and the “relative binding free energy” value was -0.18 kcal/mol.
For TGTAGCACGTGTCGCT, the “relative binding free energy” value was -0.1 kcal/mol.
In the case of GGGGCCACGTGGTGAA, the “relative binding free energy” value is reported as -0.04 kcal/mol.
For TGGGCCACGTGCTTTG, the “relative binding free energy” value was -0.2 kcal/mol.
For GTTGTCACGTGCCAGG, the “relative binding free energy” value was 0.1 kcal/mol.
TTGCCCACGTGTTGGT was tested, and the “relative binding free energy” value was 0 kcal/mol.
GGGGACACGTGGTACG was tested, and the “relative binding free energy” value was -0.05 kcal/mol.
TTTGACACGTGTTCTT was tested, and the “relative binding free energy” value was 0.04 kcal/mol.
For TCGTACACGTGATGTG, the “relative binding free energy” value was 0.19 kcal/mol.
TTGGTCACGTGTTCAT was tested, and the “relative binding free energy” value was 0.01 kcal/mol.
GTTCGCACGTGCTTGG was tested, and the “relative binding free energy” value was -0.07 kcal/mol.
ATGAGCACGTGTCTTG was tested, and the “relative binding free energy” value was -0.19 kcal/mol.
In the case of AGGAACACGTGTTGTT, the “relative binding free energy” value is reported as 0.03 kcal/mol.
With TTTATCACGTGCCTGT the “relative binding free energy” value was 0.04 kcal/mol.
With GAACTCACGTGGGTTT the “relative binding free energy” value was 0.12 kcal/mol.
With AGTGACACGTGGCGAT the “relative binding free energy” value was -0.03 kcal/mol.
GGTGTCACGTGCAGTT was tested, and the “relative binding free energy” value was 0.13 kcal/mol.
AGTGACACGTGTAGTA was tested, and the “relative binding free energy” value was -0.01 kcal/mol.
With AAGTGCACGTGGTAAA the “relative binding free energy” value was 0 kcal/mol.
